“Also recorded” adds a separate entry of the source.

From US20240239894A1, “THERAPEUTIC BINDING MOLECULES” (MedImmune Limited, priority 2020, published 2024) come the findings set out here.

One series can be described thus: In vitro serum stability. Type of series: in vitro ADME. The source says: (§1) The cleavable mal-PEG8-val-ala linker-SG3932 linker-warhead ADC offers the widest relative TI and compares favorably to benchmark. The four comparative linker-warheads are provided below.
The subject of another series is human TNBC PDX models. The series is described as follows: Panel of 26 human TNBC PDX models. It is filed as in vivo, athymic nude mice. The source says:
The antitumor activity of E02-GL-SG3932 was investigated in a panel of 26 human TNBC PDX models using immunocompromised athymic nude mice. These PDX models have been established from human tumor samples without prior in vitro culture and have been studied for histology, cytogenetics, genetic and other biological markers, and for their response to standard-of-care therapies. Tumor fragments were subcutaneously transplanted into mice, and once tumors grew in volume to approximately 94 to 189 mm3, animals were randomized and each mouse received a single IV injection of either E02-GL-SG3932 or control articles, at a dose of 1.25 mg/kg or 3.5 mg/kg. To assess the relationship between B7-H4 expression and efficacy, fresh untreated tumors with a volume of around 500 to 1183 mm3 from 3 additional mice from each model were collected, fixed in 10% neutral buffered formalin and subsequently processed and embedded into paraffin blocks. IHC and image analysis techniques were then used to characterize the expression of B7-H4 on tumor cell membranes in each model.

The next series has as its system MX-1 cells. In words: Western blot DNA damage response. It is filed as cell-based, human. The following applies: 10 μg/mL ADC or 10 nM warhead, up to 72 hours. The procedure:
Following treatment of MX-1 cells with NIP228, E02-GL, NIP228-SG3932, E02-GL-SG3932, or the warhead SG3924 as a control (10 ug/ml for the mAbs or ADCs and 10 nM for the warhead), lysate was prepared and subjected to western blot analysis with antibodies to pATR, ATR, pATM, ATM, pH2AX, H2AX and actin (loading control)—see FIG. 17B.
HT29+huB7-H4 clone 26 and MX-1 cells were plated in 6-well plates at a density of 500,000 and 1,500,000 cells per well respectively in medium containing 10% heat-inactivated FBS. The next day, the plating medium was removed and cells were subjected to incubation with HT29+huB7-H4 clone26 cells with NIP228, E02-GL, NIP228-SG3932, and E02-GL-SG3932 in complete medium at a concentration of 10 μg/mL. The warhead SG3924 was used at 10 nM as a control. After 72 hours, cells were washed once with phosphate-buffered saline (PBS) and then lysed by adding Laemmil Reducing buffer (loading buffer Boston BioProducts). After a brief incubation, cell lysates were collected, equal amounts were loaded onto Bis NuPAGE Novex Bis-Tris gels (Invitrogen) and proteins transferred to polyvinylidene fluoride (PVDF) membranes (Invitrogen). […] After washing, protein bands were detected by using SuperSignal West Femto Chemiluminescent substrate and SuperSignal West Pico Chemiluminescent substrate (Pierce/Thermo Scientific). […]

The subject of another series is MDA-MB-468 xenografts. In words: Xenograft dose-response. Type of series: in vivo, mouse. Here is the method: To further elucidate the dose-dependent effect of E02-GL-SG3932 treatment in vivo, dose levels ranging from 0.125 mg/kg to 2 mg/kg were evaluated in MX-1 and MDA-MB-468 breast cancer xenograft models. In both studies, animals were injected SC with either the MX-1 or MDA-MB-468 cells and after tumors grew in volume to a mean of approximately 138 mm3 (MX-1) or 120 mm3 (MDA-MB-468), animals were randomized and each mouse received an IV injection of either E02-GL-SG3932 or control articles.

The nature of a further series: SCID mouse PK. It is filed as in vivo. The conditions noted are these: @ 1.25 mg/kg.
Excerpt: as §1

Series [1] relates to patient derived xenograft (PDX) models. In words: PDX models, single i.v. dose. Type of series: in vivo, mouse. The conditions noted are these: single i.v. injection, 7 mg/kg. The procedure: Tumor tissue fragments were implanted subcutaneously into female athymic nude mice between 6 to 8 weeks of age. When tumors reached the appropriate tumor volume range (typically 150-300 mm^3), animals were randomized into treatment and control groups and dosing was initiated. Tumor-bearing mice were administered a single dose of test articles via intravenous injection. Animals were observed daily and tumor dimensions and body weight were measured and recorded twice weekly. […] Tumor volumes were measured by digital caliper and the volumes of tumors were calculated using the following formula: tumor volume=[length (mm) x width (mm)^2×0.52, where the length and width are the longest and shortest diameters of the tumor, respectively.
Tumor volume at the beginning of treatment is referred as the initial tumor volume (ITV); tumor volume at the time showing maximal response to the ADC treatment is referred to as the end tumor volume (ETV). If ETV is less than ITV, the anti-tumor response is calculated as follows: [(ETV−ITV)/ITV]×100. Otherwise, the anti-tumor response is expressed as percent tumor volume change in the treatment arm relative to the vehicle control arm: 100-[1-((ETV-ITV)treatment/(ETV-ITV)vehicle)×100].

B1: E02-GL-SG3932: E02-GL conjugated via cleavable mal-PEG8-val-ala linker to TOP1i warhead, DAR of 8 (conjugate)
heavy: QVQLQQWGAGLLKPSETLSLACTVYGGSFSGYYWNWIRQPPGKGLEWIGEINHSGSTSYNPSLKSRVTISVDTSKNQFSLKLSSVTAADTAVYYCARVLYNWNVDSWGQGTLVTVSSASTKGPSVFPLAPSSKSTSGGTAALGCLVKDYFPEPVTVSWNSGALTSGVHTFPAVLQSSGLYSLSSVVTVPSSSLGTQTYICNVNHKPSNTKVDKRV[human IgG1 Fc cut from this listing]
light: DIQMTQSPSSLSASVGDRVTITCRASQDIRNDVGWYQQKPGKAPKRLIYAASRLQSGVPSRFSGSGSGTEFTLTISSLQPEDFATYYCLQHNSYPRTFGQGTKVEIKRTVAAPSVFIFPPSDEQLKSGTASVVCLLNNFYPREAKVQWKVDNALQSGNSQESVTEQDSKDSTYSLSSTLTLSKADYEKHKVYACEVTHQGLSSPVTKSFNRGEC
For B1, the “In vitro serum stability (avg % deconjug. at day 15 vs 0)” value in “In vitro serum stability” amounted to 24%. For the same molecule, the “% of models with reduction in tumor volume from baseline of 30% or greater” value with human TNBC PDX models (single dose of 1.25 mg/kg, 12 of 26) turned out to be 46.2%. Further, the “% of models with reduction in tumor growth from baseline of 30% or greater” value in the series with human TNBC PDX models (single dose of 3.5 mg/kg, 18 of 26) is reported as 69.2%. Moreover, the “DNA damage response signalling (pATM, pATR, pH2AX)” value with MX-1 cells is “leads to double strand DNA breaks; also recorded: activation of the ATM signalling pathway”. In addition, the “% TGI” value was 31.8% in the series with MDA-MB-468 xenografts (0.125 mg/kg, day 55); 25.5% in the series with MDA-MB-468 xenografts (0.25 mg/kg, day 55); 58.4% in the series with MDA-MB-468 xenografts (0.5 mg/kg, day 55); 52.8% with MDA-MB-468 xenografts (0.75 mg/kg, day 55); 66.6% in the series on MDA-MB-468 xenografts (1 mg/kg, day 55); 75.2% with MDA-MB-468 xenografts (1.5 mg/kg, day 55). Also, the “% TGI” value with MDA-MB-468 xenografts (2 mg/kg single intravenous dose, vs untreated at day 55) came to 97.7%. Moreover, the “SCID mouse PK CL” value in “SCID mouse PK” was 11.3 mL/day/kg. In addition, the “in vivo activity in PDX models” value in series [1] is “potent in vivo activity”.
